Source: article PMC4336329 (PLoS ONE, 2015)
The whole screen tested about 310,000 compounds, of which about 14,000 (4.5%) showed an effect of 50% or more. Effects have a minus sign here. The list shows a part of the results.

target: human ether-à-go-go-related gene (hERG) potassium channel (human, UniProt Q12809); test: primary screen, population patch clamp on CHO cells stably expressing hERG
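Note: peak tail current of the secondary pulse compared with the same well before compound.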

Chain of human ether-à-go-go-related gene (hERG) potassium channel (Q12809 whole entry, looked up): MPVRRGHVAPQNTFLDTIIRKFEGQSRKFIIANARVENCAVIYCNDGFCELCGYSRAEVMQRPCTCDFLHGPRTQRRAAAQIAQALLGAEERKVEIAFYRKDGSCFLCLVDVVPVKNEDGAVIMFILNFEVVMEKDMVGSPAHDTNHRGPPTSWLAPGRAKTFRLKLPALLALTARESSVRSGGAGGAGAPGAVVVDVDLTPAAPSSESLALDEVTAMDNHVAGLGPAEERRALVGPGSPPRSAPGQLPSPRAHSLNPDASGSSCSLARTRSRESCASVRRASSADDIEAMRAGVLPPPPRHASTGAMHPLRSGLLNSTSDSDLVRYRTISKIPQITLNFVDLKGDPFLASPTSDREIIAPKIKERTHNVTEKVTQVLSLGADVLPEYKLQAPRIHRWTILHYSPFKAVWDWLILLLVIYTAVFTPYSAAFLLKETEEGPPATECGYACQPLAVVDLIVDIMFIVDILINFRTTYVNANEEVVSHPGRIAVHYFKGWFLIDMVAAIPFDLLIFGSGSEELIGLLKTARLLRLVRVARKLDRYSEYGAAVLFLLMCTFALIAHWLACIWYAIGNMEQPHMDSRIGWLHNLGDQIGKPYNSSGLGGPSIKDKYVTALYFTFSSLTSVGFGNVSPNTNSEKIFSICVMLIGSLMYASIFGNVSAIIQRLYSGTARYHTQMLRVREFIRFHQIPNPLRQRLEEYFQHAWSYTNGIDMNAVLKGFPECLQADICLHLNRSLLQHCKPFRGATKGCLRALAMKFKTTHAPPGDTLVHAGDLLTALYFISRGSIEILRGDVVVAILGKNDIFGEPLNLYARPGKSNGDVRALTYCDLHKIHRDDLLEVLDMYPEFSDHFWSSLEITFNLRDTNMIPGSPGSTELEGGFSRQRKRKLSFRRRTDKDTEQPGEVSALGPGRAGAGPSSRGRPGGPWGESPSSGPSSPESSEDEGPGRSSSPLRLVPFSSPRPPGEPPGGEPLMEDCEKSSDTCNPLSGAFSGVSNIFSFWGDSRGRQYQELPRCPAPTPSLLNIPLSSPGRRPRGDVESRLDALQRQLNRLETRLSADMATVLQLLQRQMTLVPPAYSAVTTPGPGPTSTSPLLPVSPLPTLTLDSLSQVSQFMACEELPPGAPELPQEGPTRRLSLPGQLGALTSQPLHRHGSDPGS

Structure (SMILES) | hERG current change (%, negative = inhibition) at 10uM [%]
COc1cccc(CC(=O)N2CCC(n3nccc3NC(=O)C3CCOC3)CC2)c1 (stereo not shown) | 21.7
CCOC(=O)C1(CC2CC2)CCN(Cc2ccc(C(=O)OC)cc2)CC1 | -57
CCOc1ccc(S(=O)(=O)N2Cc3ccccc3CC2C(=O)NCCCn2ccnc2)cc1 (stereo not shown) | -38.2
COc1ccc(/C=C2\CCCC3C2=NN(C(=O)c2scnc2C)C3c2ccc(OC)cc2)cc1 (stereo not shown) | 4.4
CCOc1ccc(-c2nnc(NC(=O)Cc3ccc(OC)cc3)o2)cc1 | 17.9
Fc1cccc(Cl)c1/C=N/Nc1ccccn1 | 15.2
CN(CC(=O)Nc1ccccc1Cl)C(=O)COC(=O)CNC(=O)c1ccc(Br)o1 | -61.4
CCc1ccc(OCC(=O)NNC(=O)C2CCC2)cc1 | -44.9
COCCN(C(=O)c1ccccc1F)c1c(N)n(Cc2ccccc2)c(=O)[nH]c1=O | 27.1
COc1ccc(OCC(=O)Nc2ccc(N3CCN(C(=O)c4ccccc4)CC3)c(Cl)c2)cc1 | -19.4
COc1cc(CNCc2ccccc2)ccc1OCC(O)c1ccccc1.O=C(O)C(=O)O (stereo not shown) | -24.9
CCOc1ccccc1NC(=O)Nc1cccc(C(C)=O)c1 | -36.3
O=C(CNC(=O)c1ccccc1)Nc1ccsc1C(=O)O | 8.57
Br.CCOC(=O)CN1C2=NCCCN2c2ccccc21 | 2.95
NC(=O)C1CCN(C(=O)c2cccc(CN3C(=O)c4ccccc4C3=O)c2)CC1 | -4.24
C[C@H](NC(=O)c1cc2cc(Cl)ccc2n1C)C(=O)N1CCC(C(=O)O)CC1 | 14.5
O=C(COC(=O)c1cccnc1Nc1cccc(C(F)(F)F)c1)NCc1ccc2c(c1)OCO2 | 18.4
CS(=O)(=O)N1CCC(C(=O)Nc2ccccc2)CC1 | 0.0372
CCCc1c(C(=O)N/N=C(\C)c2ccc(O)cc2)nnn1-c1nonc1N | 3.04
CSc1ccc(S(=O)(=O)NCC(=O)OCC(=O)NC2(C#N)CCCCC2)cc1[N+](=O)[O-] | 0.00068
COc1ccc(-n2nc3c(c2NC(=O)COc2cccc(OC)c2)CS(=O)(=O)C3)cc1 | -29.5
COc1cc(OC)c(OC)cc1CN1CCN(Cc2ccco2)CC1.O=C(O)C(=O)O | 18.1

Structure (SMILES) | hERG current change (%, negative = inhibition) at 10uM [%]
C=CCN(c1ccccc1C(=O)O)S(=O)(=O)/C=C/c1ccccc1 | 23.5
Cc1cc(C)c(NC(=O)CSc2nnc(CN3CCOCC3)n2C)c(C)c1 | 13.5
O=C(CNc1ccccc1)N/N=C/c1ccc2c(c1)OCO2 | 13.1
Nc1c(Cl)nc(-c2ccccc2)nc1Cl | 17.2
Cn1c(NN)nc2sc3c(c2c1=O)CC(C)(C)OC3 | 9.89
CCOC(=O)CSc1ncc(OC)c(=O)[nH]1 | 19.4
CCOc1ccc(NC(=O)COc2ccc3c(c2)CCC3)cc1OC | 3.04
N#Cc1c(-c2ccc(Cl)cc2)ccn2nc(C3CCCCC3)nc12 | 14.3
CCCCCCCc1ccc(-c2ccc(O)cc2)nc1 | 16.9
CCCCN(CCCC)C(=O)C[n+]1cccc(/C=N/O)c1.[Cl-] | -9.09
CCc1ccc(N2CC(C(=O)Nc3cccc(S(=O)(=O)N4CCCC4)c3)CC2=O)cc1 (stereo not shown) | -15.9
CC1CCN(C(=O)CNC(=O)CNS(=O)(=O)c2ccccc2)CC1 | 13.2
CC(=O)N1CCCc2cc(S(=O)(=O)NC(C(=O)NC(C)c3ccccc3)C(C)C)ccc21 (stereo not shown) | 3.12
COC(=O)c1cn(-c2ccccc2)nc1-c1cccnc1 | -28.5
CS(=O)(=O)c1cccc(NC(=O)c2ccc(Cl)c(Cl)c2)c1 | -33.5
CCn1c(CC(=O)Nc2ccc(C)c(Cl)c2)nnc1SCCOc1ccc(OC)cc1 | 2.62
N#C/C(=C/c1ccc(N2CCCCC2)o1)C(=O)Nc1ccc(Cl)cc1 | 0.106
CCOC(=O)c1ccc(N=Cc2c(O)n(-c3ccccc3F)c(=S)[nH]c2=O)cc1 | 8.22
Cc1ccc(S(=O)(=O)N2CCN(C(=O)CC(C)C)CC2)cc1 | 0.37
CCC(=O)Nc1nnc(/C=C/c2ccccc2)s1 | 1.74
Cc1ccc(CCN2C(Nc3ccccc3)=NC[C@@H]2C)cc1 | -35.9
CCN1CCN(c2ncnc3sc(C)c(-c4ccccc4)c23)CC1 | -57.1

Structure (SMILES) | hERG current change (%, negative = inhibition) at 10uM [%]
COc1cccc(NC(=O)Nc2ccccc2Br)c1 | 19.6
COc1ccccc1[C@@H]1C(c2ccc(F)cc2)=NN(c2ccccc2)[C@H]1C(=O)N1CCOC1=O | 11.9
COc1ccc(C(=O)N2CCCC(CCC(=O)NCc3ccccc3F)C2)c(OC)n1 (stereo not shown) | 13.8
CSCCC(NC(=O)c1ccc([N+](=O)[O-])cc1Cl)C(=O)OCC(=O)N(C)C (stereo not shown) | -2.34
Cc1ccccc1OCCCC(=O)Nc1ccccc1C(F)(F)F | -3.72
O=C(Nc1nc2ccc([N+](=O)[O-])cc2s1)c1ccc(S(=O)(=O)N2CCCc3ccccc32)cc1 | -21.6
C=CCn1c(SCC#N)nc2sc(CC)cc2c1=O | -16.5
Cc1[nH]c2ccc(F)cc2c1CCN(Cc1cccnc1)C(=S)Nc1cccc(F)c1 | -7.74
O=[N+]([O-])c1cc([N+](=O)[O-])c(Oc2ccc(F)cc2F)cc1NN1CCCCC1 | 8.46
CCOC(=O)c1cc(-c2ccccc2)n(CCC(=O)O)c1C | 7.64
CC(/C=C/C(=O)c1ccc(C)cc1)=C\c1ccccc1 | 2.2
COc1ccc(OC)c(C(c2c(O)nc(SC)[nH]c2=O)c2c(O)nc(SC)[nH]c2=O)c1 | 14
O=C(c1ccccc1CCc1ccccc1)N1CCCC1 | 9.12
NS(=O)(=O)c1ccc(NC(=O)/C=C/c2cccs2)cc1 | 9.65
Fc1ccc(C2CC(c3cccs3)=NN2C(=S)Nc2ccccc2)cc1 (stereo not shown) | -34.4
COc1cc(OC)c(NC(=O)c2cccc(F)c2)cc1Cl | -8.25
Cc1ccccc1N=C/C=C1\N(C)c2ccccc2C1(C)C | -70.7
CC(=O)c1ccccc1NC(=O)CN1C(=O)CS/C1=C\c1nc(-c2ccc(C)cc2)cs1 | 10.3
O=C(N1CCCCC1)C1(c2ccccc2)CCOCC1 | 11.6
COc1ccc(OC(=O)c2ccc3nsnc3c2)cc1 | -6.32
O=C(c1cccc(C(F)(F)F)c1)C1CCCN(C(=O)CN2CCCC2=O)C1 (stereo not shown) | 6.18
C=CCOc1ccccc1CNCc1cccnc1.Cl | 12.6

Structure (SMILES) | hERG current change (%, negative = inhibition) at 10uM [%]
CCCCc1c(C)nc2c(OC)cccc2c1SCCC(=O)O | -3.67
COC(=O)C1=C(C)N(c2ccc(Br)cc2)C(=O)/C1=C\c1ccco1 | 2.22
COc1cccc(N2CCN(c3ncnc4c3[nH]c3ccccc34)CC2C)c1 (stereo not shown) | -11.7
CCOC(=O)/C=c1\s/c(=C\c2ccc3cc(OC)ccc3c2)c(=O)n1CC(=O)NCc1ccc2c(c1)OCO2 | 44
COc1ccc(NC(=O)CCCNC(=O)c2ccc(Cl)cc2)c(OC)c1 | -11.6
CCOc1ccccc1C(=O)NC(C(=O)Nc1cccnc1)C(C)C (stereo not shown) | -20.3
CCCCOc1nc2ccccc2nc1C(C#N)S(=O)(=O)c1ccccc1 (stereo not shown) | 0.44
N#Cc1c(SCc2ccccc2)nc(N2CCOCC2)c2c1CCCC2 | -3.29
NC(=O)CC1NC(=O)c2ccccc21 (stereo not shown) | 12.5
O=C(NCCN1CCN(c2ccccc2F)CC1)C1CC(=O)N(C2CCCC2)C1 (stereo not shown) | 2.24
COc1ccc(CN2CCC(CO)(Cc3ccccc3)CC2)cc1Cn1cccn1 | -76.5
COCCCC1CCN(C(=O)C2CCC(=O)N(C3CCCCCC3)C2)CC1 (stereo not shown) | 3.84
CC(=O)c1cccc(N/C=C\C(=O)c2ccc(C)cc2)c1 | 13.2
CC(C)C(=O)Nc1ccc(C(=O)NNC(=O)c2ccco2)cc1 | 7.75
COC(=O)c1cc(-c2cccs2)nc2ccccc12 | 3.59
CCN1CCN(CCNC(=O)C2CCN(Cc3nc(-c4ccc(Cl)cc4)oc3C)CC2)CC1 | 1.11
Cc1cc(C)n(-c2nc3c(c(=O)[nH]c(=O)n3C)n2CCc2ccccc2)n1 | -19.4
COc1ccc(-n2c(Cn3c(=O)sc4ccccc43)nnc2SCC(N)=O)cc1 | -4.31
COc1cc(/C=C(\NC(C)=O)C(=O)O)cc(OC)c1OC | 12.5
COc1ccccc1N1CCN(C(=O)C2CCN(S(=O)(=O)c3ccc4c(c3)CC(C)N4C(C)=O)CC2)CC1 (stereo not shown) | 8.94
COC(=O)c1sc2ncn(-n3c(C)ccc3C)c(=O)c2c1C | 19.7
O=C1c2ccccc2C(=O)N1CCCCCCc1ccccc1 | 10.5
